In PubChem BioAssay AID720569 (National Center for Advancing Translational Sciences (NCATS), 2013):
Inconclusive results, whose numbers are uncertain, are shown with a selection of clear calls. A potency beside an inconclusive call is a rough fit, not a confirmed value. Activity calls are given as the source filed them. Calls follow the shape of the dose curve; as a rule, active = well fitted inhibition curve with a large enough effect; inconclusive = small, poorly fitted or top-dose-only effect; inactive = no such curve, though single readings can be large or run the other way.
Also: nearly all actives have a fitted effect of over 70% in size.
Potency is read from the fitted curve at half-maximal effect; tags tell the direction and shape of the fitted curve.

Each compound was assayed on pyruvate kinase (Trypanosoma brucei) (assay: qHTS of Trypanosoma Brucei Inhibitors: Confirmatory Assay for Cherry-picked Compounds). Details: recombinant TbPYK, Kinase-Glo ATP luminescence; series mostly up to 76.9 µM.
Outline: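 Recombinant T. brucei PYK with substrate was preincubated with compound, then ADP (130 uM final) started the reaction, run 45 min at room temperature. ATP formed was read by Kinase-Glo Plus luminescence; concentration-response curves were fitted from normalized data.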
With `O=C(c1ccccc1)c1cc2ccc(O)cc2oc1=O` the Potency was inconclusive: 31.6 µM [inhibitor, single point]. In the case of `O=C1NC(c2cccs2)Nc2sc3c(c21)CCCC3` (configuration not stated), the Potency is reported as “inactive”. With `Cc1c(C)c(C)c(S(=O)(=O)N2CCC3(CC2)OCCO3)c(C)c1C` the Potency was “inactive”. `Cc1c(Br)c(O)c(Br)c2sc(=O)oc12` was tested, and the Potency was inconclusive: 0.447 µM [inhibitor, partial curve, poor fit]. In the case of `COc1cc2c(cc1OC)C(c1ccc([N+](=O)[O-])cc1)NCC2` (configuration not stated), the Potency is reported as “inactive”. In the case of `CCC(=O)/C=C1/Sc2ccccc2N1CC`, the Potency is reported as inconclusive: 15.8 µM [inhibitor, partial curve]. With `COc1ccc(C2CC(=O)N3CN(c4ccc(C)c(Cl)c4)CSC3=C2C#N)cc1OC` (configuration not stated) the Potency was inconclusive: 31.6 µM [inhibitor, partial curve, poor fit]. `CCOC(=O)C1(C)C(C(=O)OC)=C(c2ccc(OC)cc2)c2ccccc2N1C(=O)OC` (configuration not stated) was tested, and the Potency was inconclusive: 50.1 µM [inhibitor, single point]. In the case of `CCOc1cc(/C=C2\SC(=N)N(c3nccs3)C2=O)ccc1OCCN1CCOCC1`, the Potency is reported as inconclusive: 31.6 µM [inhibitor, partial curve]. With `Cc1ccc(-c2csc3ncn(-n4c(C)ccc4C)c(=O)c23)o1` the Potency was “inactive”. In the case of `O=C(CSc1ccc(-c2ccco2)nn1)c1ccccc1`, the Potency is reported as inconclusive: 28.2 µM [inhibitor, partial curve]. In the case of `COC(=O)c1sccc1NC(=O)Nc1ccc(F)cc1`, the Potency is reported as inconclusive: 25.1 µM [inhibitor, single point].
